# In paper PMC4336329 (PLoS ONE, 2015):
# Hit rate of the full screen: of about 310,000 compounds, about 2,200 (0.71%) showed an effect of 50% or more. Effects have a minus sign here. This is one part of the list.
# Target: human ether-à-go-go-related gene (hERG) potassium channel (human, UniProt Q12809)
# Test: primary screen, population patch clamp on CHO cells stably expressing hERG
# Chain of human ether-à-go-go-related gene (hERG) potassium channel (Q12809 whole entry, looked up): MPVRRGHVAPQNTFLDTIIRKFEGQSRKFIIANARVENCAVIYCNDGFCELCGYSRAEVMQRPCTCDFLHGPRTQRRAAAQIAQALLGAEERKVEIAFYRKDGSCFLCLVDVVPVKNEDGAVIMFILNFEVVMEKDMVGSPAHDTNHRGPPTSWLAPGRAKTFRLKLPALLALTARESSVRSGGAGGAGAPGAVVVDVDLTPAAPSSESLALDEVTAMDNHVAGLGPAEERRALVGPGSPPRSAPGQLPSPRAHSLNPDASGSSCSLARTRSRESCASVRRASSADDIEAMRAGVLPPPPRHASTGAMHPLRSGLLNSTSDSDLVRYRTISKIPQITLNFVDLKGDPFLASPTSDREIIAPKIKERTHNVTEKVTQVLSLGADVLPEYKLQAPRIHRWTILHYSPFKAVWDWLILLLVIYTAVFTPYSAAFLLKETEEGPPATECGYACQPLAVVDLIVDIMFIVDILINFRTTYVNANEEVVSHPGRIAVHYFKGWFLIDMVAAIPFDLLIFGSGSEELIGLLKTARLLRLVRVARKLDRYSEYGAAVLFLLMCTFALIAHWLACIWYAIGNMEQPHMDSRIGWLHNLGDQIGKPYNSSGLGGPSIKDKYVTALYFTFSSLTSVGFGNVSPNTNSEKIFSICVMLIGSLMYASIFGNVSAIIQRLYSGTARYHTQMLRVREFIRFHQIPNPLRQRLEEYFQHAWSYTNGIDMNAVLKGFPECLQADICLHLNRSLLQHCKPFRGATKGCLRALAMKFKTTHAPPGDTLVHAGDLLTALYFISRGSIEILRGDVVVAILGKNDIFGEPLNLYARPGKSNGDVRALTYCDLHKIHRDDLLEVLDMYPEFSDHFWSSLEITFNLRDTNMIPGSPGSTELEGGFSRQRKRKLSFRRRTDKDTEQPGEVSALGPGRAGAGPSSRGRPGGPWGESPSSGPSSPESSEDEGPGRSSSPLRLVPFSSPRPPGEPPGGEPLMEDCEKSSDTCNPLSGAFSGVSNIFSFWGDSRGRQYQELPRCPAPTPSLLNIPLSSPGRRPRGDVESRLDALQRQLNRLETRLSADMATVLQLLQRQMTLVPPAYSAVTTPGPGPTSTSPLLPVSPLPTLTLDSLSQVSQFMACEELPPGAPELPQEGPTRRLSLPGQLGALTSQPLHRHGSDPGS
row,Compound,"hERG current change (%, negative = inhibition) at 1uM [%]"
1,CCn1c(SCC(=O)Nc2cccc(C(C)=O)c2)nnc1C(C)C,11.1
2,C/C(CC(=O)Nc1ccccn1)=N\NC(=O)c1ccccc1O,7.76
3,Cc1ccc(S(=O)(=O)N2CCC(C(=O)Nc3ccncc3)CC2)cc1,4.42
4,CCn1cnc2sc(-c3ccccc3)cc2c1=O,1.92
5,Cn1nc(-c2ccc(C(=O)Nc3cccnc3)cc2)c2ccccc2c1=O,1.54
6,COC(=O)Cc1[nH]nc2c1C(c1ccc(O)c(OC)c1)C(C#N)=C(N)O2 (stereo not drawn),16.7
7,CCC(=O)c1ccc(O)c(CC=C(C)C)c1,11.5
8,CC(C)(C)c1ccc(C(=O)NCc2nnc(SCC(=O)N3CCCc4ccccc43)n2-c2ccccc2)cc1,5.23
9,CC(=O)c1cccc(NC(=O)CO/N=C2/CCCc3nonc32)c1,7.59
10,Cc1cc(C)c(C(=O)NCC2CCCO2)c(C)c1C(=O)NCC1CCCO1 (stereo not drawn),17.1
11,O=S(=O)(Nc1ccc(-c2ccc3nncn3n2)cc1)c1cccs1,24
12,Cc1cc(OCC(=O)NC(Cc2ccc(Cl)cc2)C(=O)O)c2c3c(c(=O)oc2c1)CCCC3 (stereo not drawn),16
13,Cc1ccc(-n2c(SCC(=O)O)nc3c(sc(=S)n3-c3ccc(C)c(C)c3)c2=O)cc1,10.1
14,COCCn1c(C)cc(C2=NNC(=Nc3ccc(Cl)cc3Cl)SC2)c1C,7.13
15,COc1ccccc1N(CC(=O)NC(C)(C)C)C(=O)c1ccc(Cl)nc1,9.74
16,COc1ccc(OC)c(-n2c(O)c(C=Nc3c(C)n(C)n(-c4ccccc4)c3=O)c(=O)[nH]c2=S)c1,10.6
17,COCCn1c(N)c(Sc2ccccc2[N+](=O)[O-])c(=O)[nH]c1=O,0.355
18,CCOCCCNC(=O)c1cn(CC)c2ccc(S(=O)(=O)N3CCCC3)cc2c1=O,15
19,CC(=O)N1CCOc2ccc(S(=O)(=O)N(C)c3cccc(C)c3)cc21,14.4
20,CCOCCCNCC(O)c1ccccc1.O=C(O)C(=O)O (stereo not drawn),5.08
21,CCn1c(=O)n(CC)c2cc(N3CCCC3)c(NC(=O)c3ccccc3)cc21,8.27
22,CCn1cc(CN2CCC(n3nccc3NC(=O)Cc3ccccc3)CC2)cn1,8.12
23,O=C(COC(=O)Cc1ccccc1[N+](=O)[O-])NC1CCCC1,4.18

row,Compound,"hERG current change (%, negative = inhibition) at 1uM [%]"
1,Cc1ccc(C(=O)CC2(O)C(=O)Nc3ccccc32)s1 (stereo not drawn),18
2,CSCCC(NC(=O)COc1ccccc1)C(=O)OCC(=O)c1ccccc1 (stereo not drawn),21.3
3,O=C(CS(=O)(=O)Cc1ccccc1)N1CCN(C(=O)c2ccco2)CC1,-20.1
4,CCN(CC(=O)Nc1cccc(OC)c1)C(=O)c1ccc(C)s1,5.16
5,O=C(Nc1ccc2c(c1)OCCO2)C1CCN(c2ncccn2)CC1,19.6
6,Cc1c(CC(=O)O)c(=O)oc2cc3oc4c(c3cc12)CCCC4,15.3
7,Cc1cccc(N2C(=O)CC(N(O)c3ccccc3)C2=O)c1 (stereo not drawn),12.2
8,O=C(O)C(=O)O.O=C(c1ccc(F)cc1)N1CCN(C2CCCCC2)CC1,-34.4
9,COc1cccc(-n2c(SCC(=O)NC3CCCCC3)nc3n[nH]c(C)c3c2=N)c1,10.9
10,Cc1cc(C(=O)N2CCN(c3ncccn3)CC2)cs1,-10.3
11,COc1nnc(-c2ccc(C)c(S(=O)(=O)N(C)C)c2)c2ccccc12,-53.6
12,CCOc1ccc(NS(=O)(=O)c2ccc(NS(=O)(=O)c3cccs3)cc2)cc1,11.4
13,O=C(c1ccc(NC2=NC3CS(=O)(=O)CC3S2)cc1)N1CCN(C(=O)c2ccco2)CC1 (stereo not drawn),14.4
14,O=C(NCCc1ccccc1)/C(=C\c1ccc([N+](=O)[O-])cc1)NC(=O)c1ccccc1,3.17
15,COc1ccccc1/C=C/C(=O)NCC(=O)N=Nc1c(O)[nH]c2ccccc12,9.17
16,Cc1nn(C)c(Sc2ccccc2N)c1[N+](=O)[O-],10.8
17,CCOc1ccc(C(=O)OC2CCCN(C)C2)cc1.Cl (stereo not drawn),-1.27
18,NS(=O)(=O)c1cccc(NS(=O)(=O)c2ccc3ccccc3c2)c1,10.1
19,C/C(=C(\C#N)C(=O)NC1CCCCC1)N(C)C,11
20,Cn1cccc1C(=O)NC(=O)CSc1nnc(C2CC2)n1-c1ccccc1,8.24
21,COC(=O)c1sc(NC(=O)CSc2nnnn2C)nc1C,14.7
22,CCC(=O)c1ccc(OCC(=O)Nc2ccc(N3CCCCC3)cc2)cc1,14.4
23,O=C(Cc1ccccc1)NCC(=O)N/N=C/c1ccc(Cl)cc1,5.64

row,Compound,"hERG current change (%, negative = inhibition) at 1uM [%]"
1,CCOC(=O)C1CCN(C(=O)CSC2=NCCS2)CC1,8.93
2,CN(C(=O)c1ccco1)c1ccccc1C(=O)O,12.4
3,Cc1c(NC=C(C#N)C#N)c(=O)n(-c2ccccc2)n1C,25.3
4,O=C(CSc1ccccn1)N1CCN(c2ccc(Cl)cc2)CC1,4.73
5,O=C(NCc1ccncc1)C1CCN(S(=O)(=O)Cc2ccccc2)CC1,-1.64
6,O=C(Nc1ccc2c(c1)OCO2)c1cccc(S(=O)(=O)N2CCOCC2)c1,7.59
7,c1ccc(-c2nnc(-c3ccncc3)o2)cc1,3.01
8,Cc1cccnc1NC(=O)C1CCCN(S(=O)(=O)c2ccc3c(c2)oc(=O)n3C)C1 (stereo not drawn),8.11
9,Fc1ccc(C2C3=C(Nc4ncnn42)c2ccccc2OC3c2ccncc2)cc1 (stereo not drawn),-0.151
10,Cc1cc2oc(=O)cc(CSc3nnc(-c4cccs4)o3)c2cc1C(C)C,1.74
11,CN1C(=O)C(O)(CC(=O)/C=C/C=C/c2ccccc2)c2ccccc21 (stereo not drawn),5.72
12,COc1ccc(/C=C2\Sc3ccc(C(=O)NC4CC4)cc3N(C)C2=O)cc1OC,-0.0644
13,COc1ccc(S(=O)(=O)Nc2nnc(C(C)C)s2)cc1,-3.29
14,NS(=O)(=O)c1ccc(CCN=Cc2ccccc2O)cc1,9.29
15,COC1OC(CO)C(O)C(O)C1O (stereo not drawn),2.17
16,CC(C)c1ccc(NC(=O)COC(=O)COc2ccccc2)cc1,4.59
17,COc1ccc(S(=O)(=O)Nc2ccc(S(=O)(=O)Nc3nc(C)cc(C)n3)cc2)cc1OC,8.07
18,CCc1nn(CC(=O)NCCCN2CCN(C)CC2)c(=O)c2cc3sc(C)cc3n12,12.2
19,CCOC(=O)c1c(C)[nH]c(C)c1S(=O)(=O)N(C)CC(=O)Nc1cccc(F)c1,8.28
20,CN1c2ccccc2N(C)C1(C)c1ccccc1,3.14
21,CCc1cccc(Nc2c3c(nc4ncnn24)CCC3)c1,16.1
22,COc1cccc(CC(=O)NC2CCSc3ccccc32)c1 (stereo not drawn),16.2
23,CC(=O)NC(NC(=S)Nc1ccc(C)cc1C)C(Cl)(Cl)Cl (stereo not drawn),8.31

row,Compound,"hERG current change (%, negative = inhibition) at 1uM [%]"
1,CCOC(=O)C1(Cc2ccc(OC)cc2)CCN(C(=O)C2=CCCC2)CC1,4.08
2,CCOC(=O)CSc1nc(N)cc(=O)[nH]1,-1.24
3,O=C(COc1cccnc1[N+](=O)[O-])N1CCc2ccccc2C1,7.49
4,CCN(CC)C(=O)N1CCC(NC(=O)c2ccc(C(C)(C)C)cc2)CC1,8.5
5,CC(C(=O)Nc1ccc(O)cc1C(=O)O)N1C(=O)/C(=C\c2cccs2)SC1=S (stereo not drawn),14.9
6,Cc1cc(C)n(-c2ccc(F)cc2)c(=O)c1C#N,19.5
7,CC(O)(C#CCN1CCCCC1)c1ccccc1 (stereo not drawn),10.4
8,O=C(O)CCCCCNC(=O)Nc1ccc2c(c1)OCCO2,17.5
9,Cc1ccc(S(=O)(=O)Nc2cc3c4c(c2)CCC(=O)N4CCC3)cc1,12.3
10,COC(=O)CC1SC(=O)NC1=Nc1ccc(O)cc1 (stereo not drawn),12.9
11,O=C(Cc1cccs1)N(CC1CCCO1)C1(C(=O)NC2CCCC2)CCCCC1 (stereo not drawn),7.33
12,CCN(CC)C(=O)C1CCCN(Cc2ccc(N(C)C)cc2)C1 (stereo not drawn),-2.31
13,COc1ccc(S(=O)(=O)N(C)CC(=O)N2CCC(C(N)=O)CC2)cc1Cl,0.633
14,CCC(=O)Nc1cccc(C(=O)N(Cc2ccccc2)Cc2ccccc2)c1,13.4
15,CC1=NNC(=O)C1CCC(=O)N/N=C/C(Br)=C/c1ccccc1 (stereo not drawn),10.2
16,CCOC(=O)CSc1nc2ccccc2n1CC(=O)N(C(C)C)C(C)C,7.55
17,CC(C)(C)NC(=O)c1cccnc1Sc1ccccc1,11.2
18,O=C(CN1CCCCC1)N/N=C/c1ccccc1Br,5.43
19,CC1CCC/C(=N/NC(=O)c2ccccc2-n2cccc2)C1 (stereo not drawn),6.77
20,NC(=O)[C@H](Cc1cc2ccccc2s1)NC(=O)[C@@H]1CC2(CC(c3cccc(NC(=O)[C@@H]4CCC(=O)N4)c3)=NO2)CN1C(=O)c1ccccc1 (stereo partly drawn),0.274
21,COCCNS(=O)(=O)c1cc(-c2nn(C)c(=O)c3ccccc23)ccc1C,7.15
